# Out of some 320,000 compounds screened, about 7,600 (2.4%) were called active. The shares of active, inactive and inconclusive entries below differ from those in the screen. Calls follow the shape of the dose curve; as a rule, active = well fitted activation curve with a large enough effect; inconclusive = small, poorly fitted or top-dose-only effect; inactive = no such curve, though single readings can be large or run the other way. Potencies of inconclusive entries are left out as doubtful fits.
# Test: qHTS Assay for NPC1 Promoter Activators; also: nearly all actives have a fitted effect of over 60% in size;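 as to activation: reporter is driven by a mutant NPC1 promoter; % of control where 0% means no effect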
# Conditions: Huh7 NPC1 promoter luciferase reporter, 24 h; series mostly up to 9.22 µM; activation: at the top concentration
# Summary of the method: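 Readout is luciferase luminescence, reflecting NPC1 promoter activation in stably transfected Huh7 cells after 24 h compound exposure at 37 °C in reduced-serum medium with 10% FBS.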
# Potency is read from the fitted curve at half-maximal effect; tags tell the direction and shape of the fitted curve.
Structure (SMILES),activation,Potency
CCOC(=O)c1c(NC(=O)CC)sc(C(=O)NC2CCCC2)c1C,inactive: 2.87%,–
O=C(Nc1ccc2[nH]ccc2c1)c1ccccc1,–,active: 0.562 µM
Cc1ccc(-n2ncc3c(SCc4ccccc4)ncnc32)cc1,–,active: 3.98 µM
CC(=O)c1ccc(Nc2ncnc3c2oc2ccccc23)cc1,–,active: 1.41 µM
COc1ccc(-c2cn3cc(C)ccc3n2)cc1Br,–,active: 0.891 µM
Cc1ccc(NC(=O)C(=O)c2c[nH]c3ccccc23)cc1,–,active: 0.631 µM
COc1ccc(C(=S)Nc2ccccc2)cc1,–,"inconclusive [activator, partial curve]"
Cc1c(-c2c(C#N)c(N)nc3c2CCCCCC3)cnn1C,–,"inconclusive [activator, single point]"
CC(C)n1cnnc1SCC(=O)NCC(=O)Nc1ccc(F)cc1,inactive: 5.06%,–
O=C1C2C3C=CC(CC3)C2C(=O)N1/N=C/c1ccc(O)cc1 (stereo unspecified),–,"inconclusive [activator, single point]"
CCOC(=O)c1ccc(-c2ccc(/C=N/NC(=O)CN(c3ccccc3Br)S(C)(=O)=O)o2)cc1,–,"inconclusive [activator, partial curve]"
CCn1c(C(=O)OC)cc2c1ccn2-c1ccc(F)cc1,–,"inconclusive [activator, single point]"
CCOc1ccc(N/C=C/C(=O)c2ccccc2)c([N+](=O)[O-])c1,–,active: 0.1 µM
CCOC(=O)c1ccc(NCc2nc3ccccc3[nH]2)cc1,–,"inconclusive [activator, single point]"
Cc1cccc(Oc2ccc(NC(=O)c3ccccc3C(=O)O)cc2)c1C,inactive: -0.271%,–
Cc1ccc2c(c1)OC(c1ccc3c(c1)OCCO3)CC2=O (stereo unspecified),–,"inconclusive [activator, single point]"
COc1cc2c(cc1OC)n(CC(=O)NC1CCCCCC1)n1c(C)cc(=O)nc21,inactive: -2.16%,–
CC(=O)Nc1nc(C2COc3ccccc3O2)cs1 (stereo unspecified),–,active: 1.26 µM
O=C(C(=O)N1CCc2ccccc2C1)N1CCc2ccccc2C1,inactive: 3.15%,–
COc1ccc(-c2csc(NC(=O)COC(=O)c3ccco3)n2)cc1,–,active: 3.98 µM
Cn1c(=S)n(/N=C/c2ccc3c(c2)OCO3)c2ccccc21,inactive: 29%,–

Structure (SMILES),activation,Potency
Cc1ccc(C(=O)Nc2nnc(-c3ccncc3)o2)cc1,inactive: 21.2%,–
O=C(NCCc1ccccc1)c1ccc(Cl)cc1[N+](=O)[O-],–,"inconclusive [activator, single point]"
Clc1ccc(-c2cn3cc(Cl)ccc3n2)cc1,–,active: 3.55 µM
O=C(Nc1ccc(N2CCCC2)cc1)c1ccc2ccccc2c1,–,"inconclusive [activator, full curve]"
O=C(NNC(=O)c1ccccc1-n1cccc1)c1ccc(Cl)nc1,inactive: -3.82%,–
CCCCOc1ccc(-c2csc(N)n2)cc1[N+](=O)[O-],–,active: 2.51 µM
CSc1nnc(NC(=O)c2ccc(S(=O)(=O)N3CCOCC3)cc2)s1,–,"inconclusive [activator, partial curve]"
CC(C)c1ccc2nc(SCC(=O)NCC3CCCO3)c(C#N)cc2c1 (stereo unspecified),–,"inconclusive [activator, single point]"
COc1ccc(OC)c(C(=O)N2CCC(CCC(=O)NC3CC3)CC2)c1,inactive: -1.9%,–
COc1ccccc1C(=O)Nc1ccc(N2CCCCC2)cc1,–,"inconclusive [activator, single point]"
CC(=O)N=C1SC2CS(=O)(=O)CC2N1c1ccc(-c2nc3ccc(C)cc3s2)cc1 (stereo unspecified),–,active: 2.82 µM
COc1c(O)ccc(/C=N/NC(=O)c2ccc3c(c2)OCCO3)c1[N+](=O)[O-],–,"inconclusive [activator, single point]"
COc1ccc(N2C(=O)c3ccccc3NC2c2ccc(OC)c(CN3CCOCC3)c2)cc1 (stereo unspecified),–,active: 2.82 µM
Cc1[nH]c(=O)[nH]c(=O)c1S(=O)(=O)Nc1ccc(Br)cc1F,inactive: -1.88%,–
CCOC(=O)c1nn(-c2ccc(C)cc2)c(=O)cc1OCC(=O)Nc1ccc(OC)cc1,inactive: -0.259%,–
CCOc1ccc(NC(=O)c2cccs2)c([N+](=O)[O-])c1,–,"inconclusive [activator, full curve]"
O=C(c1cccs1)N1CCN(c2nc3ccccc3s2)CC1,–,"inconclusive [activator, partial curve]"
O=C(Nc1nnc(SCC(=O)N2CCCCC2)s1)c1cccs1,inactive: 1.59%,–
COc1cc(NC(=O)c2ccc3snnc3c2)cc(OC)c1,–,"inconclusive [activator, single point]"
O=C1S/C(=C\C=C\c2ccco2)C(=O)N1c1ccccc1,–,"inconclusive [activator, single point]"
N#C/C(=C\c1cccs1)C(=O)Nc1ccccn1,–,active: 2.24 µM

Structure (SMILES),activation,Potency
CCOc1ccc(OCCOC(=O)CNC(=O)c2ccc(Cl)cc2Cl)cc1,–,"inconclusive [activator, single point]"
CSc1ccccc1OCc1cc(C(=O)N(C)CC2COCCO2)no1 (stereo unspecified),–,"inconclusive [activator, partial curve]"
COc1cccc(Nc2nnc(SCc3nc4ccccc4s3)s2)c1,–,"inconclusive [activator, single point]"
Cc1ccc(NC(=O)c2cc3ccccc3o2)nc1,–,active: 3.98 µM
COc1cc2[nH]c(=O)n(CCC(=O)N3CCc4ccccc4C3)c(=O)c2cc1OC,inactive: 0.2%,–
CN(C)c1ccc(NC(=O)N2CCOCC2)cc1,inactive: 6.88%,–
CCCOc1ccc(/C=N/Nc2cccc([N+](=O)[O-])c2)c(O)c1,–,"inconclusive [activator, single point]"
COc1ccc(C(=O)Nc2cccc(/C=C(\CCC(=O)O)c3nc4ccccc4s3)c2)cc1,–,active: 3.16 µM
Cc1csc(NC(=O)Cc2ccc(F)cc2)n1,–,"inconclusive [activator, single point]"
Cc1ccc(SCC(=O)OCC(=O)NC(C)c2ccc(Br)cc2)cc1 (stereo unspecified),inactive: -2.15%,–
CC(C)(C)C(=O)Nc1nc(-c2ccccc2)ns1,–,active: 0.501 µM
O=c1c(-c2ccccc2)c[nH]n1-c1cccc([N+](=O)[O-])c1,–,"inconclusive [activator, partial curve]"
COCCn1c(C)cc(C(=O)CSc2nc3ccccc3c(=O)[nH]2)c1C,–,active: 1.78 µM
CCOC(=O)C1CCCN(C(=O)c2ccc3oc(CCc4ccccc4)nc3c2)C1 (stereo unspecified),–,"inconclusive [activator, single point]"
CC1=NN(C(N)=S)C(=O)C1N=Nc1cccc2ccccc12 (stereo unspecified),–,"inconclusive [activator, single point]"
O=C(NCCSc1ccccc1)c1cccnc1,–,"inconclusive [activator, single point]"
COC(=O)c1ccc2nc(-c3ccc(S(C)(=O)=O)cc3)cn2c1,–,"inconclusive [activator, single point]"
O=C(COC(=O)Cc1ccc2c(c1)OCCO2)Nc1ccc(S(=O)(=O)N2CCCC2)cc1,inactive: 2.65%,–
Cc1ccc(S(=O)(=O)N/N=C\c2ccc3c(c2)OCO3)cc1C,inactive: 0.81%,–
COc1ccccc1/C=C/C(=O)N1CCC(c2ccccc2)C1 (stereo unspecified),–,"inconclusive [activator, partial curve]"
COc1cccc(CN(C)C(=O)[C@@H](NC(=O)c2ccc(C)cc2)C(C)C)c1,inactive: -2.1%,–

Structure (SMILES),activation,Potency
Cc1ccc2c(c1)C(c1ccncc1)=NNC(c1ccccc1)=N2,–,"inconclusive [activator, partial curve]"
O=C(CSC(=S)N1CCSCC1)c1ccc(Cl)cc1,–,active: 3.16 µM
COc1ccc(NC(=O)c2ccc(COc3ccccc3)o2)c(OC)c1,inactive: -1.99%,–
COc1ccc(C(=O)NCCSC2CCCCC2)cc1,–,"inconclusive [activator, single point]"
NNC(=O)Cn1cnc2ccccc21,–,"inconclusive [activator, single point]"
COc1c(C(=O)NNC(=O)c2ccccc2)csc1Br,–,"inconclusive [activator, single point]"
O=C(NN=C1CCC(=NNC(=O)c2ccccn2)CC1)c1ccccn1,inactive: -0.442%,–
O=C(Nc1ccc(OC(F)F)c(Cl)c1)c1ccccn1,–,active: 1 µM
CCOc1cccc2cc(-c3nnc(NCc4ccco4)s3)c(=O)oc12,–,"inconclusive [activator, single point]"
CCOC(=O)C1(CCOC)CCN(C2C3CC4CC(C3)CC2C4)CC1 (stereo unspecified),inactive: -0.745%,–
Cn1cccc1-c1cc(C(=O)N/N=C/c2ccccc2Cl)[nH]n1,–,"inconclusive [activator, partial curve]"
O=C(Nc1ccc(Cl)c(Cl)c1)Nc1ccccc1O,–,active: 3.98 µM
O=c1cc(/C=C/c2c(F)cccc2Cl)[nH]c2ccccc12,–,"inconclusive [activator, partial curve]"
COc1cccc(NC(=S)NCc2cccs2)c1,inactive: -0.487%,–
CCn1ccnc1CN(C)C(=O)c1cc(COc2ccccc2SC)on1,–,"inconclusive [activator, partial curve]"
N#C/C(=C\c1ccc(F)cc1)c1nc(-c2ccco2)cs1,–,"inconclusive [activator, single point]"
O=C(N/N=C/c1ccccc1F)c1cccc2ccccc12,–,"inconclusive [activator, single point]"
O=C(NCCCc1ccccc1)c1ccc(F)cc1,–,"inconclusive [activator, partial curve]"

# From PubChem BioAssay AID485313 (National Center for Advancing Translational Sciences (NCATS), 2010)
